Results published in publication PMC12040169 (PLOS Biology, 2025).
Some of the results follow.

What follows are compounds tested on T1, C. trachomatis L2/434/Bu expressing GFP (CTL2-GFP). Details: total inclusion area; 28.5 h, 10 µM; inhibitor.
T1 construct: L2/434/Bu GFP intracellular growth in HeLa cells
Set-up: species or system HeLa; C. trachomatis total inclusion area by high-content imaging, normalised to DMSO
How it was run: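 High-content images of fixed, Hoechst-stained infected cultures supply inclusion area and count (growth) plus nuclei number (viability), complementing bulk GFP/resorufin fluorescence. MIC determination is unchanged from the primary assay.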

SMILES	% of control remaining
COc1ccc(N2CCN(CC(O)COc3ccc4c(C)cc(=O)oc4c3)CC2)cc1 (stereo not drawn) [CBK269847]	100.22
COc1ccc(-c2nc(NC(=O)C3CC(=O)N(C)C3c3cccnc3)cnc2-c2cccc(C)c2)cc1 (stereo not drawn) [CBK036692]	116.828
COc1ccc(C(=O)Nc2cc(C)c3c(=O)oc4ccccc4c3n2)cc1OC [CBK287442]	126.648
Cc1ccc(CC2CCCN(C(=O)NCc3cnn(C)c3)C2)cc1 (stereo not drawn) [CBK303990]	45.7797
CSCCN(CC(=O)O)Cc1ccccc1 [CBK005712]	73.4335
Cc1ccccc1OCC(O)CN1CCN(CCN2C(=O)c3cccc4cccc(c34)C2=O)CC1 (stereo not drawn) [CBK278321C]	97.5533
COc1cc(C(=O)N2CCC(n3c(=O)[nH]c4c(C)cccc43)CC2)ccc1C [CBK155372]	91.9423
Brc1ccc(-c2nc(CSc3nnnn3C3CCCCC3)no2)cc1 [CBK026913]	109.879
COC[C@H]1CCCN1C(=O)CC[C@H]1CNC(=O)[C@@H]2[C@@H](CCN2C2CCCCC2)N1C [CBK289039]	124.199
CCCCNC(=O)N1CCN(c2ccccc2Cl)CC1 [CBK043777]	95.1769
CCCCc1nnc(CC(C)C)o1 [CBK008679]	105.15
CN(C)S(=O)(=O)c1ccc(C(=O)C2=C(O)C(=O)N(CCN3CCOCC3)C2c2ccccc2)cc1 (stereo not drawn) [CBK264540]	93.7141
CC(C)NC(=O)CN1CCN(Cc2nc(-c3cccc(Cl)c3)no2)CC1 [CBK304369]	67.1107
CN(C)C(=O)C(C)(C)Oc1cc(C(F)(F)F)n(C)n1 [CBK056980]	55.7991
Cc1ccc(C)c(NC(=O)CCc2c(C)[nH]c3ncnn3c2=O)c1 [CBK304646]	59.4904
O=S(=O)(c1ccccc1)n1ccc2c(Br)cccc21 [CBK002084]	60.2823
O=[N+]([O-])c1ccccc1N/C(=N/S(=O)(=O)c1ccccc1)c1ccccc1 [CBK262336]	107.329
O=C(Nc1cccnc1N1CCNCC1)c1cccnc1 [CBK029426T]	106.016
CC1(C)CC2CC(C)(CN2Cc2c(O)ccc3cc(-c4nc(-c5ccc(Br)cc5)cs4)c(=O)oc23)C1 (stereo not drawn) [CBK263831]	90.6819
O=C(CN1CCN(C(c2ccccc2)c2ccccc2)CC1)CN1C(=O)c2ccccc2C1=O [CBK261682]	86.1913
OCc1ccc(-c2nccnc2NCc2cccs2)cc1 [CBK088689]	95.3491
